In article PMC6919601, “Identification of Plasmodium dipeptidyl aminopeptidase allosteric inhibitors by high throughput screening” (PLoS ONE, 2019):
Out of some 110,000 compounds screened, about 230 (0.21%) showed an effect of 50% or more. Some of the results follow.

Target: DPAP1 (Plasmodium falciparum, UniProt Q8IIJ9)
Experiment: primary screen, percent inhibition; read by cleavage of a fluorogenic dipeptide substrate; higher = more effect of the substance
Design: species or system P. falciparum D10 trophozoite lysates; single well
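Note: 30 min substrate incubation versus DMSO and 10 µM JCP410 controls.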

Sequence of DPAP1 (Q8IIJ9 whole entry, looked up): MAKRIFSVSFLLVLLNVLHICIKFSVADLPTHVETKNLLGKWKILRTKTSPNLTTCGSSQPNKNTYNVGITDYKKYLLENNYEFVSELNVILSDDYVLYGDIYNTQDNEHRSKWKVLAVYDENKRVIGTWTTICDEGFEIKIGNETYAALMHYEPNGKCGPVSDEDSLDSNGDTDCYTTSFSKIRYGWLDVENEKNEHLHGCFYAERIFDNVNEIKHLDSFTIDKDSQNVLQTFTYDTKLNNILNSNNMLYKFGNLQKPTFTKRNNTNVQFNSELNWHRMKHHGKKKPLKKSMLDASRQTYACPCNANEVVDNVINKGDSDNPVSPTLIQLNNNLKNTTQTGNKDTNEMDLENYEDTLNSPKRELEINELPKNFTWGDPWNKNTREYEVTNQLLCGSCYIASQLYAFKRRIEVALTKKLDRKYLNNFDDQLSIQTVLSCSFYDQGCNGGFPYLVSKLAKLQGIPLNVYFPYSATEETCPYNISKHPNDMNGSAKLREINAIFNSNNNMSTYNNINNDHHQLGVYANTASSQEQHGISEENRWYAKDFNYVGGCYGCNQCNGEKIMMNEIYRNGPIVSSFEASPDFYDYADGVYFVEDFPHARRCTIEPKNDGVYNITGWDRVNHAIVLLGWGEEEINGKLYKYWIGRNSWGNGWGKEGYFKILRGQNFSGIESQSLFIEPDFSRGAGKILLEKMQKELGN

Compound | % Inhibition @ 10 uM
NC(=O)c1ccccc1NS(=O)(=O)c1cc(Cl)ccc1Cl | -3.71%
CC[C@@H](C)[C@H](NC(=O)CC(c1ccccc1)c1ccccc1)C(=O)N[C@@H](CCc1ccccc1)C(=O)CO | 5.05%
CC1CCN(C(=O)C2c3ccccc3C(=O)N3CCc4ccccc4C23)CC1 (stereo not drawn) | -1.21%
CCc1c(C)c2c(C)nn(-c3ccccc3)c2oc1=O | -2.5%
CCN(CC)S(=O)(=O)c1ccc(-c2ccc(S(=O)(=O)N(CC)CC)cc2)cc1 | 3.37%
Cc1cc(OCC(=O)Nc2ccc(O)cc2)cc(C)c1Cl | -6.38%
CC1=C(C(=O)Nc2ccccc2)C(c2cccs2)C(C#N)=C(SCC(=O)NC2CC2)N1 (stereo not drawn) | 1.03%
COc1ccc(/C=C/C(=O)N2c3ccccc3C(C)(c3ccccc3)CC2(C)C)cc1 (stereo not drawn) | 56.6%
COc1ccc(/C=C2/CN(C)C/C(=C\c3ccc(OC)c(OC)c3)C2=O)cc1OC | -1.06%
Cc1ccc(/C=c2\sc3ncnn3c2=O)o1 | 0.222%
CC1=C(c2ccc(C)cc2)S(=O)(=O)N=C1NC(C)C | 0.623%
COc1ccc(C2C(C#N)=C(N)Oc3[nH]nc(C)c32)cc1COc1ccc(Cl)cc1 (stereo not drawn) | 3.19%
COc1ccc2nc3c(O)n(CCc4ccc(Cl)cc4)cnc-3c2c1 | 1.64%
O=C(NCCc1ccccc1)Nc1ccccc1 | 3.82%
CCc1ccc(NC(=O)CSc2nc(N)cc(O)n2)cc1 | -7.76%
CC(NC(=O)CNC(=S)N1CC2CC(C1)c1cccc(=O)n1C2)c1ccccc1 (stereo not drawn) | -7.85%
O=C(COc1ccccc1Cl)N(Cc1ccccc1)c1ccccn1 | 3.62%
CN(CC(=O)N1CCCCCC1)S(=O)(=O)c1cccc2nsnc12 | -3.23%
Cc1nc2ccc(S(=O)(=O)N(C)CC(=O)Nc3nc4ccc(Cl)cc4s3)cc2s1 | 15.2%
Cc1cc(C)cc(NC(=O)C(C)Oc2ccccc2)c1 (stereo not drawn) | -5.88%
Clc1ccc(Oc2cccc(CN3CCN(c4ccc(Cl)cc4)CC3)c2)cc1 | -0.261%

Compound | % Inhibition @ 10 uM
Cc1cccc(CCNC(=O)c2cn(CC(C)C)c(=O)c3c2c2ccccc2n3C)c1 | -5.77%
Cc1ccc(C)c(C2C(C#N)=C(N)OC3=C2C(=O)CCC3)c1 (stereo not drawn) | -5.07%
Cc1ccc(NC(=O)c2cccc(Cl)c2)c(Br)c1 | -0.771%
Cn1c2ccccc2c2c(C(=O)NCCCN3CCCC3=O)cn(C3CCCCC3)c(=O)c21 | -1.58%
CSc1nc(-c2ccccc2)nc2nc(-c3ccccc3)cc(O)c12 | 2.36%
CCc1ccc(CNCc2c(C(=O)O)n(Cc3ccccc3F)c3cc(OC)ccc23)cc1 | 4.66%
CCc1ccc(C2N(c3cc(C)on3)C(=O)C3CCCN32)cc1 (stereo not drawn) | -0.499%
CCc1ccc(N2CC(C(=O)Nc3ccccc3C(=O)NC3CCCCC3)CC2=O)cc1 (stereo not drawn) | -4.38%
COc1ccc(CN2C(=O)c3cccnc3C2=O)cc1S(=O)(=O)NCC(C)c1ccccc1 (stereo not drawn) | -9.16%
N#Cc1c(NC(=O)c2cc3nc(-c4ccccc4)cc(C(F)(F)F)n3n2)sc2c1CCCC2 | -3.27%
Cc1oc2c(c1C(=O)N1CCCC1)C(=O)c1ccccc1C2=O | 1.72%
c1ccc(-c2nc3c(c(N4CCCCC4)n2)C2(CCCCC2)Cc2ccccc2-3)cc1 | 3.01%
C/C(=N\Cc1ccccc1)c1sc2ccccc2c1O | 21.8%
CCSc1sc(CCN(CC)CC)cc1/C=N/O | 1.29%
COc1cc(CN(C(=S)NCC(=O)N2CCCC2)C2CCCC2)cc(OC)c1OC | 2.9%
Oc1ccc(-c2ccccc2)nn1 | 3.04%
COc1ccc(CCCC(=O)Nc2ccccc2Cl)cc1 | -3.28%
COC(=O)c1ccc(C2NC(C(=O)O)CS2)cc1 (stereo not drawn) | -5.15%
CCSc1nc2c(cc1C#N)CCCC2 | 9.41%
CN1CCN(C(=O)c2ccccc2Sc2ccccc2)CC1 | -2.98%
O=C(C1=NOC2C3CCC(C3)C12)c1ccccc1 (stereo not drawn) | -1.78%

Compound | % Inhibition @ 10 uM
CC(=O)C1=C(C)NC(SCC(=O)c2cc(Cl)ccc2Cl)=C(C#N)C1c1cccs1 (stereo not drawn) | 10.9%
COc1ccc(CN2CCN(c3cccc(Cl)c3)CC2)cc1C | 1.4%
COc1ccc(-c2nn(C)c3sc(C(=O)N4CCC(C#N)CC4)cc23)cc1OC | 1.91%
Cc1ccccc1C(=O)OCCN1CCCCC1 | -5.51%
O=C(c1ccco1)c1cn(CCOc2ccccc2)c2ccccc12 | 2.1%
CCOC(=O)c1cc(-c2ccc(/C=C3/C(=O)ON=C3C)o2)ccc1Cl | -2.87%
COc1cc2c(cc1OC)C(C(=O)N(C)Cc1ccccc1)C(c1ccc(SC)cc1)N(C)C2=O (stereo not drawn) | 2.17%
Cc1ccc(-c2c(C#N)c(N)nc3c2CCCCCC3)o1 | 2%
O=C(NCCc1cccs1)C(c1ccccc1)c1ccccc1 | -4.42%
CC(CCc1ccccc1)NC(=O)C(=O)N1CCOCC1 (stereo not drawn) | 3.79%
Cc1oc(-c2ccc(Cl)cc2)nc1CN1CCC(C(=O)NCCN2CCCCC2C)CC1 (stereo not drawn) | 2.37%
Cc1ccc(-c2cc(C(=O)NCC3CCCO3)[nH]n2)cc1C (stereo not drawn) | -0.537%
Cc1ccc(S(=O)(=O)N(CC(=O)N2CCCCCC2)Cc2ccc(Cl)cc2)cc1 | -4.71%
Cc1ccc(CN(C(=O)c2ccc(OC(C)C)cc2)C2CCS(=O)(=O)C2)o1 (stereo not drawn) | -1.11%
Cc1nc2ccn(Cc3cccnc3)c(=O)c2cc1C(=O)NCc1ccc2c(c1)OCO2 | -5.72%
CCOC(=O)N1CCN(C(=O)c2cc3c(s2)-c2ccc(Cl)cc2SC3)CC1 | 7.12%
CC(CCc1ccc(O)cc1)NC1CCCC(C)C1C (stereo not drawn) | -0.233%
O=C(O)Cc1sc(Nc2nc3ccccc3s2)nc1-c1ccccc1 | 3.93%
CC(NCC(O)Cn1c2ccccc2c2ccccc21)C(=O)O (stereo not drawn) | 0.0289%
CSc1ccc(C2C3=C(CCCC3=O)OC3=C2C(=O)CCC3)cc1 | 2.38%
CN(CC(CC(=O)Nc1nnc(-c2ccccc2)s1)c1ccccc1)S(=O)(=O)c1ccccc1 (stereo not drawn) | -0.834%
